{"source": "the supplement of paper PMC8728848", "binders": {"B1": {"name": "MPA (Maclura pomifera) (protein)", "chain": "GVTFDDGAYTGIREINFEYNSETAIGGLRVTYDLNGMPFVAEDHKSFITGFKPVKISLEFPSEYIVEVSGYVGKVEGYTVIRSLTFKTNKQTYGPYGVTNGTPFSLPIENGLIVGFKGSIGYWLDYFSIYLSLNGPNGKSQSIIVGPWGDRVTN"}}, "assay_in_all_cases": "glycan array binding signal (z-score within array); higher = stronger binding", "settings_in_all_cases": "glycan notation: IUPAC condensed, linker removed", "key": {"Fuc(a1-2)Gal": {"molecular_target": "Fuc(a1-2)Gal", "outline": "(§1)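 The binding signal is a Z-score computed within each array. Data were drawn from 3228 arrays in the Consortium for Functional Glycomics database, restricted to those with a known protein sequence. Scores were averaged over arrays of the same protein sequence at different concentrations or buffers, and over linkers, and negative values can be taken as non-binding.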"}, "Fuc(a1-2)Gal(b1-3)GalNAc": {"molecular_target": "Fuc(a1-2)Gal(b1-3)GalNAc", "outline": "as §1"}, "[1]": {"molecular_target": "Fuc(a1-2)Gal(b1-3)GalNAc(b1-3)Gal", "outline": "as §1"}, "[2]": {"molecular_target": "Fuc(a1-2)Gal(b1-3)GalNAc(b1-3)Gal(a1-4)Gal(b1-4)Glc", "outline": "as §1"}, "[3]": {"molecular_target": "Fuc(a1-2)Gal(b1-3)GalNAc(b1-4)[Neu5Ac(a2-3)]Gal(b1-4)Glc", "outline": "as §1"}, "Fuc(a1-2)Gal(b1-3)GlcNAc": {"molecular_target": "Fuc(a1-2)Gal(b1-3)GlcNAc", "outline": "as §1"}, "[4]": {"molecular_target": "Fuc(a1-2)Gal(b1-3)GlcNAc(b1-3)Gal(b1-4)Glc", "outline": "as §1"}, "[5]": {"molecular_target": "Fuc(a1-2)Gal(b1-3)[Fuc(a1-4)]GlcNAc", "outline": "as §1"}, "Fuc(a1-2)Gal(b1-4)Glc": {"molecular_target": "Fuc(a1-2)Gal(b1-4)Glc", "outline": "as §1"}, "Fuc(a1-2)Gal(b1-4)GlcNAc": {"molecular_target": "Fuc(a1-2)Gal(b1-4)GlcNAc", "outline": "as §1"}, "[6]": {"molecular_target": "Fuc(a1-2)Gal(b1-4)GlcNAc(b1-3)Gal(b1-4)GlcNAc", "outline": "as §1"}, "[7]": {"molecular_target": "Fuc(a1-2)Gal(b1-4)GlcNAc(b1-3)Gal(b1-4)GlcNAc(b1-3)Gal(b1-4)GlcNAc", "outline": "as §1"}, "[8]": {"molecular_target": "Fuc(a1-2)Gal(b1-4)[Fuc(a1-3)]GlcNAc", "outline": "as §1"}, "[9]": {"molecular_target": "Fuc(a1-2)Gal(b1-4)[Fuc(a1-3)]GlcNAc(b1-3)Gal(b1-4)[Fuc(a1-3)]GlcNAc", "outline": "as §1"}, "[10]": {"molecular_target": "Fuc(a1-2)Gal(b1-4)[Fuc(a1-3)]GlcNAc(b1-3)Gal(b1-4)[Fuc(a1-3)]GlcNAc(b1-3)Gal(b1-4)[Fuc(a1-3)]GlcNAc", "outline": "as §1"}, "Fuc(a1-2)GlcNAc": {"molecular_target": "Fuc(a1-2)GlcNAc", "outline": "as §1"}, "Fuc(a1-2)[Gal(a1-3)]Gal": {"molecular_target": "Fuc(a1-2)[Gal(a1-3)]Gal", "outline": "as §1"}, "[11]": {"molecular_target": "Fuc(a1-2)[Gal(a1-3)]Gal(b1-3)GlcNAc", "outline": "as §1"}, "[12]": {"molecular_target": "Fuc(a1-2)[Gal(a1-3)]Gal(b1-4)Glc", "outline": "as §1"}, "[13]": {"molecular_target": "Fuc(a1-2)[Gal(a1-3)]Gal(b1-4)GlcNAc", "outline": "as §1"}, "[14]": {"molecular_target": "Fuc(a1-2)[Gal(a1-3)]Gal(b1-4)[Fuc(a1-3)]GlcNAc", "outline": "as §1"}, "[15]": {"molecular_target": "Fuc(a1-2)[Gal(a1-4)]Gal(b1-4)GlcNAc", "outline": "as §1"}, "[16]": {"molecular_target": "Fuc(a1-2)[GalNAc(a1-3)]Gal", "outline": "as §1"}, "[17]": {"molecular_target": "Fuc(a1-2)[GalNAc(a1-3)]Gal(b1-3)GlcNAc", "outline": "as §1"}, "[18]": {"molecular_target": "Fuc(a1-2)[GalNAc(a1-3)]Gal(b1-4)Glc", "outline": "as §1"}, "[19]": {"molecular_target": "Fuc(a1-2)[GalNAc(a1-3)]Gal(b1-4)GlcNAc", "outline": "as §1"}, "[20]": {"molecular_target": "Fuc(a1-2)[GalNAc(a1-3)]Gal(b1-4)[Fuc(a1-3)]GlcNAc", "outline": "as §1"}, "[21]": {"molecular_target": "Fuc(a1-2)[GalNAc(a1-4)]Gal(b1-4)GlcNAc", "outline": "as §1"}, "[22]": {"molecular_target": "Fuc(a1-2)[GalNAc(b1-3)]Gal", "outline": "as §1"}, "Fuc(a1-3)GlcNAc": {"molecular_target": "Fuc(a1-3)GlcNAc", "outline": "as §1"}, "[23]": {"molecular_target": "Fuc(a1-3)[Gal(b1-4)]GlcNAc", "outline": "as §1"}, "[24]": {"molecular_target": "Fuc(a1-3)[Gal(b1-4)]GlcNAc(b1-4)Gal(b1-4)[Fuc(a1-3)]GlcNAc", "outline": "as §1"}, "[25]": {"molecular_target": "Fuc(a1-3)[Gal(b1-4)]GlcNAc(b1-4)Gal(b1-4)[Fuc(a1-3)]GlcNAc(b1-4)Gal(b1-4)[Fuc(a1-3)]GlcNAc", "outline": "as §1"}, "[26]": {"molecular_target": "Fuc(a1-3)[Gal3S(b1-4)]GlcNAc", "outline": "as §1"}, "[27]": {"molecular_target": "Fuc(a1-3)[GalNAc(b1-4)]GlcNAc", "outline": "as §1"}, "Fuc(a1-4)GlcNAc": {"molecular_target": "Fuc(a1-4)GlcNAc", "outline": "as §1"}, "Fuc(b1-3)GlcNAc": {"molecular_target": "Fuc(b1-3)GlcNAc", "outline": "as §1"}, "Gal(a1-2)Gal": {"molecular_target": "Gal(a1-2)Gal", "outline": "as §1"}, "Gal(a1-3)Gal": {"molecular_target": "Gal(a1-3)Gal", "outline": "as §1"}, "Gal(a1-3)Gal(b1-3)GlcNAc": {"molecular_target": "Gal(a1-3)Gal(b1-3)GlcNAc", "outline": "as §1"}, "Gal(a1-3)Gal(b1-4)Glc": {"molecular_target": "Gal(a1-3)Gal(b1-4)Glc", "outline": "as §1"}, "Gal(a1-3)Gal(b1-4)GlcNAc": {"molecular_target": "Gal(a1-3)Gal(b1-4)GlcNAc", "outline": "as §1"}, "[28]": {"molecular_target": "Gal(a1-3)Gal(b1-4)[Fuc(a1-3)]GlcNAc", "outline": "as §1"}, "Gal(a1-3)GalNAc": {"molecular_target": "Gal(a1-3)GalNAc", "outline": "as §1"}, "[29]": {"molecular_target": "Gal(a1-3)[Gal(a1-4)]Gal(b1-4)GlcNAc", "outline": "as §1"}}, "note": "The other results are listed elsewhere or left out.", "data": [{"binder": "B1", "values": [{"measurement": "glycan array binding signal (z-score)", "setting": "Fuc(a1-2)Gal", "result": -0.136}, {"measurement": "glycan array binding signal (z-score)", "setting": "Fuc(a1-2)Gal(b1-3)GalNAc", "result": 2.25}, {"measurement": "glycan array binding signal (z-score)", "setting": "[1]", "result": 0.14}, {"measurement": "glycan array binding signal (z-score)", "setting": "[2]", "result": -0.234}, {"measurement": "glycan array binding signal (z-score)", "setting": "[3]", "result": -0.237}, {"measurement": "glycan array binding signal (z-score)", "setting": "Fuc(a1-2)Gal(b1-3)GlcNAc", "result": -0.234}, {"measurement": "glycan array binding signal (z-score)", "setting": "[4]", "result": -0.244}, {"measurement": "glycan array binding signal (z-score)", "setting": "[5]", "result": -0.236}, {"measurement": "glycan array binding signal (z-score)", "setting": "Fuc(a1-2)Gal(b1-4)Glc", "result": -0.208}, {"measurement": "glycan array binding signal (z-score)", "setting": "Fuc(a1-2)Gal(b1-4)GlcNAc", "result": -0.213}, {"measurement": "glycan array binding signal (z-score)", "setting": "[6]", "result": -0.244}, {"measurement": "glycan array binding signal (z-score)", "setting": "[7]", "result": -0.242}, {"measurement": "glycan array binding signal (z-score)", "setting": "[8]", "result": -0.22}, {"measurement": "glycan array binding signal (z-score)", "setting": "[9]", "result": -0.222}, {"measurement": "glycan array binding signal (z-score)", "setting": "[10]", "result": -0.217}, {"measurement": "glycan array binding signal (z-score)", "setting": "Fuc(a1-2)GlcNAc", "result": -0.189}, {"measurement": "glycan array binding signal (z-score)", "setting": "Fuc(a1-2)[Gal(a1-3)]Gal", "result": -0.123}, {"measurement": "glycan array binding signal (z-score)", "setting": "[11]", "result": -0.244}, {"measurement": "glycan array binding signal (z-score)", "setting": "[12]", "result": -0.242}, {"measurement": "glycan array binding signal (z-score)", "setting": "[13]", "result": -0.241}, {"measurement": "glycan array binding signal (z-score)", "setting": "[14]", "result": -0.247}, {"measurement": "glycan array binding signal (z-score)", "setting": "[15]", "result": -0.233}, {"measurement": "glycan array binding signal (z-score)", "setting": "[16]", "result": -0.23}, {"measurement": "glycan array binding signal (z-score)", "setting": "[17]", "result": -0.24}, {"measurement": "glycan array binding signal (z-score)", "setting": "[18]", "result": -0.232}, {"measurement": "glycan array binding signal (z-score)", "setting": "[19]", "result": -0.234}, {"measurement": "glycan array binding signal (z-score)", "setting": "[20]", "result": -0.229}, {"measurement": "glycan array binding signal (z-score)", "setting": "[21]", "result": -0.223}, {"measurement": "glycan array binding signal (z-score)", "setting": "[22]", "result": -0.013}, {"measurement": "glycan array binding signal (z-score)", "setting": "Fuc(a1-3)GlcNAc", "result": -0.191}, {"measurement": "glycan array binding signal (z-score)", "setting": "[23]", "result": -0.216}, {"measurement": "glycan array binding signal (z-score)", "setting": "[24]", "result": -0.211}, {"measurement": "glycan array binding signal (z-score)", "setting": "[25]", "result": -0.211}, {"measurement": "glycan array binding signal (z-score)", "setting": "[26]", "result": -0.178}, {"measurement": "glycan array binding signal (z-score)", "setting": "[27]", "result": -0.213}, {"measurement": "glycan array binding signal (z-score)", "setting": "Fuc(a1-4)GlcNAc", "result": -0.223}, {"measurement": "glycan array binding signal (z-score)", "setting": "Fuc(b1-3)GlcNAc", "result": -0.22}, {"measurement": "glycan array binding signal (z-score)", "setting": "Gal(a1-2)Gal", "result": -0.234}, {"measurement": "glycan array binding signal (z-score)", "setting": "Gal(a1-3)Gal", "result": 0.155}, {"measurement": "glycan array binding signal (z-score)", "setting": "Gal(a1-3)Gal(b1-3)GlcNAc", "result": -0.224}, {"measurement": "glycan array binding signal (z-score)", "setting": "Gal(a1-3)Gal(b1-4)Glc", "result": -0.225}, {"measurement": "glycan array binding signal (z-score)", "setting": "Gal(a1-3)Gal(b1-4)GlcNAc", "result": -0.177}, {"measurement": "glycan array binding signal (z-score)", "setting": "[28]", "result": -0.158}, {"measurement": "glycan array binding signal (z-score)", "setting": "Gal(a1-3)GalNAc", "result": 2.28}, {"measurement": "glycan array binding signal (z-score)", "setting": "[29]", "result": -0.16}]}]}
